Experimental data published in PubChem BioAssay AID1963576 (National Center for Advancing Translational Sciences (NCATS), 2024).
About 60 (0.1%) of roughly 46,000 compounds were called active. Roughly 3% stayed inconclusive and do not appear here. Calls come from the whole dose curve; as a rule, active = well fitted inhibition curve with a large enough effect; inconclusive = small, poorly fitted or top-dose-only effect; inactive = no such curve, though single readings can be large or run the other way. This is one part of the list.

Test: Primary qHTS assay for Inhibitors of ovarian cancer metastasis using an organotypic tumor microenvironment (TME) model.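 For activity change, negative = inhibition: plate controls were DMSO wells for no effect and tomatine positive control wells for full effect.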 Note: nearly all actives have a fitted effect of over 65% in size.
Conditions: SKOV3ip1-GFP adhesion/invasion on 3D omental model, fluorescence; series mostly up to 45.8 µM; activity change, negative = inhibition: at the top concentration
How it was run: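 qHTS, 4-pt dose (0.36-46 umol/L); SKOV3ip1-GFP, 1,200 cells/well, no FBS; primary omental fibroblast/mesothelial co-culture 48 h pre-grown; 2 h RT + 16 h 37 C; PBS wash, 4% PFA; GFP count 488/509 nm.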

SMILES	activity change, negative = inhibition	outcome
CCc1ccc(CSc2nc(-c3ccccc3F)nc3c2Cc2c(CO)cnc(C)c2O3)cc1	inactive: 15.9%	
O=C(CSc1nc(=O)[nH]c2c1CCC2)NCc1ccccc1Cl	inactive: -8.58%	
Cc1nc2ccccc2c(=O)n1-c1ccc(NC(=O)c2ccccc2[N+](=O)[O-])cc1	inactive: 2.23%	
CCN(Cc1ccccc1)C(=O)Cn1c(=O)n(-c2ccccc2)c(=O)c2c1c1cc(C)ccc1n2C	inactive: 2.45%	
CCC(=O)NNc1ncnc2c1cnn2-c1ccc(C)c(Cl)c1	inactive: -8.31%	
CCn1c(SCC(=O)Nc2ccccc2C(=O)OC)nc2ccsc2c1=O		inactive
Cc1ccc(-c2cc(C(=O)Oc3ccc(C#N)cc3)no2)cc1	inactive: 1.86%	
Cc1ccc(NC(=O)Cn2c(=O)n(Cc3ccco3)c(=O)c3oc4ccccc4c32)cc1C	inactive: 5.06%	
COc1ccc(OC(=O)c2nc(SCc3ccccc3F)ncc2Cl)cc1	inactive: -3.01%	
Cc1cccc(CNC(=O)C2CCC(CNS(=O)(=O)c3ccc4c(c3)CCCC(=O)N4)CC2)c1 (stereo not drawn)	inactive: 0.705%	
O=C(Nc1ccc2nc(SCC(=O)N3CCOCC3)sc2c1)c1cccc(Br)c1	inactive: 12.9%	
Cc1cccc(CN2C(=O)c3ccccc3Sc3ccc(C(=O)NC4CCCCC4)cc32)c1	inactive: -5.74%	
O=C(NCc1c(-n2cccc2)sc2c1CCCC2)Nc1cccc(C(F)(F)F)c1	inactive: -9.12%	
CCC(C)n1c(SCC(=O)Nc2ccccc2C(=O)OC)nc2ccsc2c1=O (stereo not drawn)	inactive: -7.84%	
Cc1cc(Nc2ccccc2C)c2cccc(C)c2n1	inactive: -3.92%	
COCCCN1CCC(NC(=O)c2cc(Cl)c(N)c3c2OCC3)CC1	inactive: -13.3%	
Cc1ccc(Cl)c2sc(NC(=O)c3ccc(S(=O)(=O)N4CCCC4)cc3)nc12	inactive: -4.06%	
COc1cccc(CNC(=O)c2cccc(N3CCCS3(=O)=O)c2)c1	inactive: 0.987%	
CCOc1ccc(C(=O)N2CC(=O)Nc3ccc(C)cc3C2c2ccc(F)cc2)cc1OCC (stereo not drawn)	inactive: 5.04%	
CCc1ccc(NC(=O)C2CCCN(S(=O)(=O)c3ccc4c(c3)oc(=O)n4C)C2)cc1 (stereo not drawn)	inactive: -4.92%	
Cc1ccc(C(=O)NCC(c2ccc(Cl)cc2)N2CCCCC2)cc1 (stereo not drawn)	inactive: 6.41%	
COCCCNC(=O)CCCn1c(SCC(=O)c2ccc(Br)cc2)nc2c(sc3ccccc32)c1=O	inactive: -8.32%	
CCN(CC)C(=O)c1c(NC(=O)c2ccccc2F)sc2c1CCC(C(C)(C)C)C2 (stereo not drawn)	inactive: 16.5%	
CCc1ccc(-c2nn(-c3ccc(OC)cc3)c3c2cnc2ccc(OC)cc23)cc1		inactive
Cc1cc2oc(C(=O)N(Cc3ccc(Cl)cc3)Cc3ccco3)c(C)c2cc1Cl	inactive: -1.18%	

SMILES	activity change, negative = inhibition	outcome
Cc1cc(C)c(NC(=O)c2cc(C)nc3c2c(C)nn3-c2cccc(F)c2)c(C)c1	inactive: 14.7%	
COC(=O)c1ccc(NC(=O)c2cnn(-c3ccc(Cl)cc3)c2C2CCN(C(=O)OC(C)(C)C)CC2)cc1		inactive
COc1ccccc1C(=O)Nc1cccc(OCc2cc(=O)n3ccccc3n2)c1	inactive: 12.8%	
CCc1nn(CC(=O)NCCc2ccc(Cl)cc2)c(=O)c2cc3c(OC)cccc3n12		inactive
CCSc1ccccc1C(=O)N1CCN(c2nc3ccccc3s2)CC1		inactive
Cc1ccc(C)c(NC(=O)CSc2nc3ccccc3nc2N2CCOCC2)c1	inactive: 0.627%	
COc1cccc(NC(=O)c2oc3ccc(S(=O)(=O)N(C)C4CCCCC4)cc3c2C)c1		inactive
CC(C)(C)OC(=O)N1CCC(c2c(C(=O)N3CCCCC3)cnn2-c2ccc(F)cc2)CC1	inactive: -21.2%	
COc1cccc(N2CCN(C(=O)c3cccn3-c3nnc(N4CCCCC4)s3)CC2)c1	inactive: -0.781%	
CCC1CCCCN1CCCNC(=O)c1cn(C)c2ccc(S(=O)(=O)N(C)C3CCCCC3)cc2c1=O (stereo not drawn)		inactive
COc1ccc(-c2cc(C(=O)Nc3ccc4c(c3)OCO4)no2)cc1	inactive: -11.2%	
CCCn1c(=O)sc2cc(NC(=O)c3ccccc3Cl)ccc21	inactive: 7.51%	
COc1cc(NC(=O)CCn2nc(C)cc2C)cc(OC)c1OC	inactive: -2%	
O=C(CSc1nccn1Cc1ccc2c(c1)OCO2)Nc1ccccc1F	inactive: 3.37%	
CC1CCCCN1C(=O)CSc1nc(-c2ccccc2)no1 (stereo not drawn)	inactive: -16%	
Cc1cccc(NC(=O)CSc2nc3c([nH]c4ccccc43)c(=O)n2-c2cc(C)cc(C)c2)c1	inactive: 61.8%	
Cc1c(Cl)cccc1NC(=O)Nc1c[nH]c(=O)[nH]c1=O		inactive
COc1cc(/C=C(/C#N)c2nc(-c3cc4ccccc4oc3=O)cs2)ccc1O	inactive: 1.59%	
CCOC(=O)C1=C(CN2CCC(C)CC2)NC(=O)NC1c1ccc(OC(C)C)cc1 (stereo not drawn)	inactive: 2.46%	
COc1ccc(Br)cc1CNC(=O)Cn1nc(C)n2c(cc3cc(F)ccc32)c1=O	inactive: 4.05%	
CCOC(=O)c1ccccc1NC(=O)CSc1nc(=O)[nH]c2c1CCCC2	inactive: -10.1%	
CSc1cccc(-n2nnc(-c3nsc(NC(=O)c4cccs4)n3)c2C)c1	inactive: -2.99%	
Cc1cc(=O)n(CC(=O)N2CCCCC2)c2c1c(C)nn2C	inactive: -0.582%	
CCN(CC)CCCNC(=O)c1cn(CC)c2ccc(S(=O)(=O)N3CCC(C)CC3)cc2c1=O		inactive
COc1ccc(Nc2nc3c(S(=O)(=O)c4ccccc4)nnn3c3ccc(Cl)cc23)cc1	inactive: 1.48%	

SMILES	activity change, negative = inhibition	outcome
COc1cccc(CNC(=O)Cn2c(=O)ccc3cc(S(=O)(=O)N4CCCC4)ccc32)c1	inactive: 4.3%	
CCc1ccc(S(=O)(=O)c2nnn3c2nc(N(C)Cc2ccccc2)c2cc(Cl)ccc23)cc1	inactive: 9.43%	
COc1ccc(-n2c(C)nc3c(cnn3-c3ccc(C)c(C)c3)c2=O)cc1Cl	inactive: -2.83%	
CCS(=O)(=O)N1CCCc2cc(C(=O)Nc3cc([N+](=O)[O-])ccc3C)ccc21		inactive
Cc1ccc(NC(=O)CN2C(=O)C(c3ccccc3)=NC23CCCCC3)cc1C		inactive
CCc1ccc2occ(CC(=O)N(Cc3ccccc3)C3CCS(=O)(=O)C3)c2c1 (stereo not drawn)	inactive: 1.56%	
COC(=O)c1ccc(NC(=O)C(C)Sc2nc(=O)cc(N)n2CCc2ccccc2)cc1 (stereo not drawn)		inactive
O=S(=O)(NCCS(=O)(=O)N1CCN(c2ccccc2)CC1)c1ccccc1	inactive: -16.6%	
CN(C1CCCCC1)S(=O)(=O)c1ccc2c(c1)c(=O)c(C(=O)N1CCN(c3ccccc3)CC1)cn2C	inactive: 9.88%	
O=C(O)c1ccc(NC(=O)c2ccc(Cl)c(S(=O)(=O)N3CCCCCC3)c2)cc1	inactive: 0.627%	
COc1ccc(CCNC(=O)c2ccc3c(c2)nc(C)n3-c2ccc(Br)cc2)cc1OC	inactive: -1.85%	
Cc1ccc(NC(=O)CN2C(=O)CCSc3ccccc32)c(C)c1		inactive
Cc1nc2c3ccccc3nc(NNC(=O)CCC(=O)O)n2n1		inactive
Cc1ccccc1NC(=O)c1cc2c([nH]c1=O)CC(C)(C)CC2=O	inactive: 2.64%	
O=C(Nc1ccc(Cl)cc1Cl)c1cc(S(=O)(=O)NCc2ccc3c(c2)OCO3)ccc1F	inactive: -3.69%	
Cc1ccc(Cn2c(CO)cnc2SCc2ccc(F)cc2)cc1	inactive: 1.31%	
CN(C)c1ccc(CNC(=O)C2CCN(c3nnc(-n4cccc4)s3)CC2)cc1		inactive
CCOc1ccc(C(=O)Nc2ccc(-c3cc4ccccc4oc3=O)cc2)cc1Br	inactive: -21.2%	
COc1ccccc1Cn1cc(C(=O)c2ccccc2)c(=O)c2cc(OC)c(OC)cc21	inactive: 5.86%	
COc1ccc(-c2cc(C(=O)Nc3cc(C(F)(F)F)ccc3Cl)no2)cc1	inactive: 2.35%	
Cc1nn(CCC(=O)Nc2ccc(Cl)cc2)c(C)c1S(=O)(=O)N1CCCCC1	inactive: 8.02%	
CCOc1ccccc1CNC(=O)c1cnn(-c2ccc(C)cc2)c1-n1cccc1	inactive: 29.3%	
COc1ccc(Cn2c(C(=O)O)c(CNCc3ccco3)c3ccc(C)cc32)cc1		inactive
Cc1ccc(C)c(NC(=O)Nc2cc3c(cc2N2CCCCC2)n(C)c(=O)n3C)c1		inactive
O=C(NCc1ccccc1)c1cccn1-c1nnc(N2CCCCC2)s1	inactive: -14.5%	

SMILES	activity change, negative = inhibition	outcome
Cc1ccc(CSc2nc3cccnc3n2Cc2ccc(C(=O)NC3CC3)cc2)cc1	inactive: 3.58%	
Cc1ccc(-n2ncc3c(=O)n(Cc4cccc(Cl)c4)cnc32)cc1C	inactive: -1.69%	
COc1cc(OC)c(NC(=O)C2=C(C)C(=O)OC23CCN(C(C)=O)CC3)cc1Cl		inactive
CCc1cccc(NC(=O)C2CCN(S(=O)(=O)c3ccc(Br)s3)CC2)c1	inactive: -1.12%	
CCCn1c2ccccc2c2cnn(CC(=O)NCCc3ccc(S(N)(=O)=O)cc3)c(=O)c21	inactive: 4.42%	
Cn1c(NCc2cccc(Cl)c2)nc2ccccc21		inactive
COc1ccc(NC(=O)CCCOc2cc(=O)n(C)c3ccccc23)c(OC)c1	inactive: -2.7%	
Cc1ccc(NC(=O)Cn2cnc3c(oc4ccccc43)c2=O)cc1Cl	inactive: -22.3%	
COCCNC(=O)CSc1c(C)cnc2c1c(=O)n(C)c(=O)n2C	inactive: -13.7%	
Cc1ccc(-n2c(=O)c3ccc(C(=O)NCc4ccco4)cc3n(Cc3ccccc3Cl)c2=O)cc1	inactive: -14.2%	
Brc1cccc(-c2nnn3c2nc(NC2CCCCC2)c2ccccc23)c1	inactive: 2.5%	
CCN(C(=O)c1ccc(C(=O)N(CC)c2ccccc2C)cc1)c1ccccc1C		inactive
CCOc1ccc(NC(=O)c2cc3cc4ccc(C)cc4nc3o2)cc1	inactive: -4.08%	
C=Cc1ccc(CN2C(=O)N(c3ccc(C)c(C)c3)S(=O)(=O)c3ccccc32)cc1		inactive
COc1ccccc1C(=O)Nc1nnc(SCc2cc(=O)c3ccccc3[nH]2)s1	inactive: -7.9%	
COc1ccc2nc3sc(C(=O)NCCc4ccc(Cl)cc4)cc3cc2c1	inactive: 16.6%	
CCS(=O)(=O)c1ncc(Cl)c(C(=O)Nc2ccc(S(=O)(=O)N(C)c3ccccc3)cc2)n1	inactive: -12.2%	
Cc1nn(-c2ccc(N3CCOCC3)nn2)c(C)c1CCC(=O)NCc1ccc(Cl)cc1		inactive
COc1ccc(NS(=O)(=O)c2cnc(N)nc2)cc1Cl		inactive
Cc1oc2c(c1C(=O)Nc1ccc(OC(F)(F)F)cc1)C1=NCCN1C=N2	inactive: 6.57%	
CCc1ccc(NC(=O)CCc2c(C)nn(-c3ccc(N4CCCC4)nn3)c2C)cc1	inactive: 4.25%	
COc1ccc(-c2nc3ccccc3o2)cc1NC(=O)COc1cc(C)cc(C)c1	inactive: -4.88%	
Cc1cc(=O)[nH]c2nnc(SCC(N)=O)n12	inactive: 2.71%	
